Measured values taken from PubChem BioAssay AID889 (National Center for Advancing Translational Sciences (NCATS), 2007).
About 15 (0.02%) of roughly 75,000 compounds were called active. The inconclusive results got no clear call from the source; some entries with a clear call stand among them for comparison. Calls come from the whole dose curve; as a rule, active = well fitted inhibition curve with a large enough effect in the main read-out, with a control signal flat (not every such curve was filed as active); inconclusive = small, poorly fitted or top-dose-only effect, or a change in a side signal; inactive = flat fitted curve, though single readings scatter. Where the call is inconclusive, the potency comes from a doubtful curve fit. “Side channel” marks fits to a control or component signal instead of the main read-out.

biological target: Caspase-7 (Homo sapiens) (UniProt P55210); assay: qHTS Assay for Allosteric/Competitive Inhibitors of Caspase-7; details: recombinant caspase-7, Ac-DEVD-AFC fluorescence rate; activity change, negative = inhibition: at 57.5 µM (top of the series) unless noted; for activity change, negative = inhibition: % of control where 0% means no effect
Potency is the fitted concentration of half-maximal effect; tags give direction and shape of the fitted curve or compound fluorescence and quenching.

UniProt P55210, sequence (P55210 whole entry, looked up): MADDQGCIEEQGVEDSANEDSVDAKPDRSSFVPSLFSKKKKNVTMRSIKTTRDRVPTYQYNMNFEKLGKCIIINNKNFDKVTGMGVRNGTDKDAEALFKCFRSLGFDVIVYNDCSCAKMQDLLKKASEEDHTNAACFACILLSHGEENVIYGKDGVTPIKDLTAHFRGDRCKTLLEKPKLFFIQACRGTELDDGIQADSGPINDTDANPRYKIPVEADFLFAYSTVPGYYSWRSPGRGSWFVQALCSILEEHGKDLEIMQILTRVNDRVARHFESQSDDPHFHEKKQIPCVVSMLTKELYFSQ

Activity change, negative = inhibition, inactive:
COc1ccc(-c2coc3cc(O)cc(O)c3c2=O)cc1 -0.431%
O=C(N/N=C1/C[C@@H](O)[C@@H](O)[C@@H]2[C@@H]3C(=O)N(C[C@@H]4CCCO4)C(=O)[C@H]3CC[C@@H]12)OCc1ccccc1 3.76% [at 11.5 µM]
N#Cc1ccccc1OC[C@H](O)CNCCNC(=O)Nc1ccccc1 0.303%
COc1cc(=O)n(C)c2c(OCC(O)C(C)(C)O)cccc12 (stereo not given) -0.52%
CCOC(=O)N1CCC(NC(=O)c2cc3c(-c4ccccc4F)nn(C)c3s2)CC1 -5.91%
COCCOC(=O)c1c(C)oc2ccc(OCC=C(C)C)cc12 -3.05%
C=CCNc1ncnc2c1cnn2-c1ccc(Cl)cc1 0.947%
CC[C@H](C)N(C)C(=O)c1cc2ccccc2c(-c2ccccc2Cl)n1 -1.37%
CCCc1cc2c(c(=O)o1)C(O)C1OC1C2=O (stereo not given) -1.4% [at 11.5 µM]
COc1ccc(-c2nc(CS(=O)(=O)CC(=O)NCCc3cc(OC)ccc3OC)c(C)o2)cc1 -1.94%
Cc1cc(-c2ccc(Cl)cc2)n2nc(N)nc2n1 -15.5%
Cc1ccc(-n2ncc(C#N)c2/N=C/N2CCCCCC2)cc1 -10.5%
CC(=O)OC[C@@H]1O[C@H](C/C=N\O[C@@H](C)CN2CCCCc3nc(C)c(C)cc32)C=C[C@@H]1OC(C)=O -0.391% [at 11.5 µM]
CSc1nc2ccc(Nc3nc(N4CCOCC4)nc(N4CCOCC4)n3)cc2s1 -2.26%
Cc1ccc(OCc2nc(C#N)c(NCc3ccc4c(c3)OCO4)o2)cc1 -2.71%
O=C(NCCc1c[nH]c2ccccc12)C(F)(F)C(F)F -1.38%
Cc1ccc(N(CC(=O)Nc2cccc(C)c2)S(=O)(=O)c2cccc3nonc23)cc1 0.0362%
COc1ccc2c(C(=O)CN(C)C3CCCCC3)c[nH]c2c1 -6.48%
O=C1CC(=O)N(Cc2ccco2)C(=O)N1 -7.24%
O=C(O)CCC(C(=O)O)n1c(O)c(C2=c3ccccc3=NC2=O)sc1=S (stereo not given) -0.131%
CC(C)(C)NC[C@@H](O)COc1ccccc1C1CCCC1 2.01% [at 25.7 µM]
COC(=O)c1ccc(COc2ccc3c(C)c(C)c(=O)oc3c2)o1 -3.75%
O=C(Nc1nc(-c2ccco2)c(-c2ccco2)s1)C1CC(=O)N(c2ccc3c(c2)OCCO3)C1 (stereo not given) -28.4%
CC(=O)OC[C@@H]1O[C@H](CCO/N=C(\C)CCN2CCc3nc(-c4ccccc4)c(-c4ccccc4)cc3C2)C=C[C@@H]1OC(C)=O 2.5% [at 11.5 µM]

Potency, inconclusive:
Cn1cc(-c2nc3cnc(OCc4ccccc4)nc3n(CCC#N)c2=O)c2ccccc21 2.51 µM [fluorescent, side channel, full curve]
CCOC(=O)CSc1nc2cc(C)cc(C)c2cc1C#N 31.6 µM [inhibitor, single point]
Cn1cc(-c2nc3cnc(N4CCOCC4)nc3n(CCC#N)c2=O)c2ccccc21 6.31 µM [inhibitor, partial curve]
Nc1ccc2c(c1)CCC2=O 25.1 µM [inhibitor, single point]
COc1ccc2ccccc2c1C(O)c1nccn1C (stereo not given) 31.6 µM [fluorescent, side channel, single point]
O=c1c(-c2ccc(F)cc2)nc2cnc(Nc3ccccc3)nc2n1Cc1cccs1 2 µM [fluorescent, full curve]
COC(=O)[C@H]1C(OC)[C@@H](OC(=O)c2cc(OC)c(OC)c(OC)c2)C[C@@H]2CN3CCc4c([nH]c5cc(OC)ccc45)[C@H]3C[C@H]21 (stereo not given in full) 25.1 µM [fluorescent, side channel, single point]
C[C@H](O)C(=O)C1=Nc2c(nc(N)[nH]c2=O)NC1 12.6 µM [fluorescent, full curve]
O=c1c(-c2cccs2)nc2cnc(N3CCOCC3)nc2n1Cc1cccs1 2.51 µM [fluorescent, side channel, full curve]
Nc1ccc2c(C(F)(F)F)cc(=O)oc2c1 3.98 µM [fluorescent, side channel, partial curve]
CC(=O)N=c1c(C#N)cc2c(=O)n3cccc(C)c3nc2n1CC(C)C 2.51 µM [fluorescent, side channel, full curve]
Cc1cc(-c2nnc(-c3cc4ccccc4oc3=O)o2)c(C)n1-c1ccccc1 15.8 µM [fluorescent, partial curve]
CN1CCN(c2ncc3nc(-c4cccc(C#N)c4)c(=O)n(CCc4ccccc4)c3n2)CC1 10 µM [fluorescent, side channel, partial curve]
COCCNc1cc(C)nc2c3c(C)cc(C)nc3nn12 15.8 µM [fluorescent, side channel, partial curve]
CSc1nc(N)nc(SCC(=O)c2ccc(C)cc2)c1C#N 31.6 µM [fluorescent, single point]
Cc1cccn2c(=O)c3cc(C(=O)NC(C)C)c(=N)n(Cc4ccncc4)c3nc12 5.01 µM [fluorescent, side channel, partial curve]
O=C1C=C(NCCO)C(=O)c2cnccc21 12.6 µM [inhibitor, partial curve]
COc1cccc(Nc2ncc3nc(-c4cccs4)c(=O)n(C[C@H]4CCCO4)c3n2)c1 12.6 µM [fluorescent, side channel, partial curve]
CN1CCN(c2ncc3nc(-c4ccc(Cl)cc4)c(=O)n(C4CC4)c3n2)CC1 10 µM [fluorescent, side channel, partial curve]
CC1/C=C/C=C/C=C/C=C/C=C/C=C/C=C/C(OC2OC(C)C(O)C(N)C2O)CC2O[C@@](O)(CC(O)CC(O)C(O)CCC(O)CC(O)CC(=O)OC(C)[C@H](C)C1O)CC(O)C2C(=O)O (stereo not given in full) 20 µM [inhibitor, single point]
CN1/C(=C\C(=O)c2cccs2)Sc2ccccc21 25.1 µM [inhibitor, single point]
O=C(NCc1ccco1)c1cccn2c(=O)c3sccc3nc12 31.6 µM [fluorescent, single point]
COc1ccc2c(C=Nc3c(C)n(C)n(-c4ccccc4)c3=O)c(O)n(Cc3ccco3)c(=O)c2c1 25.1 µM [fluorescent, side channel, partial curve]
CCc1cccc2nc3c(c([Si](CC)(CC)CC)c12)Cn1c-3cccc1=O 15.8 µM [fluorescent, partial curve]
CCNc1ncc2ncc(=O)n(C[C@H]3CCCO3)c2n1 15.8 µM [fluorescent, partial curve]
CCNc1ncc2nc(CCc3ccccc3)c(=O)n(CCOC)c2n1 10 µM [inhibitor, partial curve]
O=C(NCc1ccco1)c1c2c(nc3ccccc13)CCC2 31.6 µM [inhibitor, single point]
COc1ccc2nc(N3CCCC3)c(C#N)cc2c1 5.01 µM [fluorescent, side channel, partial curve]
COc1ccc(CNc2oc(-c3cccc4ccccc34)nc2C#N)cc1 25.1 µM [inhibitor, partial curve]
CCCn1nc(-c2ccccc2)c2nc3ccccc3nc21 3.16 µM [fluorescent, full curve]
CC(C)(C)OC(=O)c1c(N)n(CCCN2CCCC2=O)c2nc3ccccc3nc12 10 µM [fluorescent, side channel, partial curve]
CCCCn1c2nc3ccccc3nc2c2c(=N)oc(C)nc21 7.94 µM [fluorescent, side channel, partial curve]
Cc1cccc(S(=O)(=O)C(C#N)c2nc3ccccc3nc2N2CC(C)OC(C)C2)c1 (stereo not given) 25.1 µM [inhibitor, single point]
COc1cccc(Cn2c(=O)c(-c3cn(C)c4ccccc34)nc3cnc(N4CCNCC4)nc32)c1 12.6 µM [inhibitor, partial curve]
CCNc1ncc2nc(-c3cn(C)c4ccccc34)c(=O)n(Cc3cccs3)c2n1 2 µM [fluorescent, side channel, partial curve]
COc1cc2cc(CN(C(=O)Nc3ccccc3)C3CCCC3)c(=O)[nH]c2cc1OC 25.1 µM [inhibitor, partial curve]
COc1cc2ccc(=O)oc2c(O)c1OCC=C(C)C 31.6 µM [fluorescent, side channel, partial curve]
Cc1ccsc1C1NC(=O)c2c(sc3c2CCN(C)C3)N1 (stereo not given) 15.8 µM [fluorescent, side channel, partial curve]
CN1CCN(c2ncc3nc(-c4ccc(F)cc4)c(=O)n(Cc4cccs4)c3n2)CC1 15.8 µM [fluorescent, partial curve]
COCCn1c(=O)c(CCc2ccccc2)nc2cnc(Nc3ccccc3)nc21 5.01 µM [fluorescent, side channel, full curve]
Cc1ccc2nc3c(cc(C(=O)NCc4ccccc4)c(=N)n3CCCn3ccnc3)c(=O)n2c1 3.16 µM [fluorescent, full curve]
